Drawing on the GPR68 mutational scans of Howard et al. (2025), this text covers cAMP reporter score and surface expression score for 32 variants.

The least precise scores are not listed. The source holds two more conditions with little spread; they are left out. In variant names, del marks residues removed and ins residues inserted between the two positions. For some of these results: The concentration of ogerin is not given here.

B1: GPR68, Q15743 (parent)
chain: MGNITADNSSMSCTIDHTIHQTLAPVVYVTVLVVGFPANCLSLYFGYLQIKARNELGVYLCNLTVADLFYICSLPFWLQYVLQHDNWSHGDLSCQVCGILLYENIYISVGFLCCISVDRYLAVAHPFRFHQFRTLKAAVGVSVVIWAKELLTSIYFLMHEEVIEDENQHRVCFEHYPIQAWQRAINYYRFLVGFLFPICLLLASYQGILRAVRRSHGTQKSRKDQIQRLVLSTVVIFLACFLPYHVLLLVRSVWEASCDFAKGVFNAYHFSLLLTSFNCVADPVLYCFVSETTHRDLARLRGACLAFLTCSRTGRAREAYPLGAPEASGKSGAQGEEPELLTKLHPAFQTPNSPGSGGFPTGRLA

The variants in data set [1] derive from B1. Kind of data set: cAMP reporter score (Enrich2 score, wild type = 0); higher = more signal; HEK293T, FACS bins.
In data set [2] the parent is B1. Kind of data set: surface expression score (Enrich2 score, wild type = 0); higher = more signal; HEK293T, FACS bins.

With V81_L82insGS, the cAMP reporter score was -1.79 in data set [1] (pH 5.5); -1.36 in data set [1] (pH 6); -1.43 in data set [1] (pH 6, modulator: ogerin); -0.87 in data set [1] (pH 6.5, modulator: ogerin). In addition, the surface expression score in data set [2] was -0.92.
In the same order, the values of N62_L63insGS are -1.15, -0.904, -0.801, -1.14 and -3.25.
On to L74_F76del, for which the cAMP reporter score in data set [1] (pH 5.5) was -1.24; in data set [1] (pH 6, modulator: ogerin), -1.29; in data set [1] (pH 6.5, modulator: ogerin), -1.33. Moreover, the surface expression score in data set [2] is -3.36.
In the case of Y59_L60insG, the cAMP reporter score was -1.64 in data set [1] (pH 5.5); -1.36 in data set [1] (pH 6); -2.37 in data set [1] (pH 6, modulator: ogerin); -1.52 in data set [1] (pH 6.5, modulator: ogerin). Also, the surface expression score in data set [2] is -2.51.
For the variant F76_W77insG, the cAMP reporter score was -0.827 in data set [1] (pH 5.5); -0.506 in data set [1] (pH 6); -1.04 in data set [1] (pH 6, modulator: ogerin). For the same variant, the surface expression score in data set [2] was -1.38.
Consider L82_Q83insG, for which the cAMP reporter score was -1.48 in data set [1] (pH 5.5); -2.06 in data set [1] (pH 6); -2.29 in data set [1] (pH 6.5, modulator: ogerin). The surface expression score in data set [2] was 0.805.
In the case of V81_L82insG, the cAMP reporter score in data set [1] (pH 5.5) is -0.813; in data set [1] (pH 6), -0.212; in data set [1] (pH 6, modulator: ogerin), -1.49; in data set [1] (pH 6.5, modulator: ogerin) it was -0.968. Moreover, the surface expression score in data set [2] is -0.147.
Q83_D85del: the cAMP reporter score is -0.953 in data set [1] (pH 5.5); -0.69 in data set [1] (pH 6); -1.78 in data set [1] (pH 6, modulator: ogerin); -0.67 in data set [1] (pH 6.5, modulator: ogerin). Besides, the surface expression score in data set [2] is -0.4.
Turning to A66_L68del, the cAMP reporter score was -1.2 in data set [1] (pH 5.5); -0.496 in data set [1] (pH 6); -1.66 in data set [1] (pH 6, modulator: ogerin); -1.29 in data set [1] (pH 6.5, modulator: ogerin). In data set [2], the surface expression score was -2.46.
With W77_L78insGSG, the cAMP reporter score in data set [1] (pH 5.5) was -0.846; in data set [1] (pH 6), -0.456; in data set [1] (pH 6, modulator: ogerin), -1.19; in data set [1] (pH 6.5, modulator: ogerin), -0.162.
Take L60_C61insGSG: the cAMP reporter score was -2.02 in data set [1] (pH 5.5); -1.13 in data set [1] (pH 6); -1.21 in data set [1] (pH 6, modulator: ogerin); -0.885 in data set [1] (pH 6.5, modulator: ogerin). In addition, the surface expression score in data set [2] was -2.31.
The like results for Q79_Y80insG were, in that order, -0.735, -0.459, -1.9, 0.095 and -0.591.
On to Y59T, for which the cAMP reporter score in data set [1] (pH 5.5) is -0.437; in data set [1] (pH 6), -0.48; in data set [1] (pH 6, modulator: ogerin), -0.674. In addition, the surface expression score in data set [2] is -1.42.
With Y59Q, the cAMP reporter score in data set [1] (pH 5.5) is -1.27; in data set [1] (pH 6, modulator: ogerin) it was -1.49; in data set [1] (pH 6.5, modulator: ogerin) it was -1.68. Also, the surface expression score in data set [2] is -2.58.
With Y59L, the cAMP reporter score in data set [1] (pH 5.5) was -0.519; in data set [1] (pH 6), -0.645; in data set [1] (pH 6, modulator: ogerin) it was -1.41; in data set [1] (pH 6.5, modulator: ogerin), -1.35. For the same variant, in data set [2], the surface expression score is -2.79.
In the same order, the values of Y59S are -1.82, -1, -0.469, -2 and -2.08.
Regarding Y59M, the cAMP reporter score in data set [1] (pH 5.5) is -1.55; in data set [1] (pH 6), -2.79; in data set [1] (pH 6.5, modulator: ogerin) it was -1.39. For the same variant, the surface expression score in data set [2] is -2.11.
As to Y59V, the cAMP reporter score is -1.43 in data set [1] (pH 5.5); -0.615 in data set [1] (pH 6); -1.46 in data set [1] (pH 6.5, modulator: ogerin). The surface expression score in data set [2] is -2.56.
Consider Y59W, for which the cAMP reporter score in data set [1] (pH 5.5) is 0.083; in data set [1] (pH 6) it was -1.13; in data set [1] (pH 6, modulator: ogerin) it was -0.656; in data set [1] (pH 6.5, modulator: ogerin), -0.925. Also, in data set [2], the surface expression score was -4.72.
Consider Y59G, for which the cAMP reporter score in data set [1] (pH 5.5) was -1.72; in data set [1] (pH 6), -1.83; in data set [1] (pH 6, modulator: ogerin), -2.17; in data set [1] (pH 6.5, modulator: ogerin), -1.35. In addition, in data set [2], the surface expression score was -2.55.
In the same order, the values of Y59N are -0.845, -0.25, -1.85, -1.61 and -1.21.
Y59H: the cAMP reporter score was -1.32 in data set [1] (pH 5.5); -2.02 in data set [1] (pH 6); -1.57 in data set [1] (pH 6, modulator: ogerin); -1.46 in data set [1] (pH 6.5, modulator: ogerin). Moreover, the surface expression score in data set [2] was -1.89.
Y59K: the cAMP reporter score in data set [1] (pH 5.5) was -1.52; in data set [1] (pH 6, modulator: ogerin) it was -2.07; in data set [1] (pH 6.5, modulator: ogerin) it was -1.48. In addition, in data set [2], the surface expression score is -2.28.
Turning to Y59P, the cAMP reporter score in data set [1] (pH 5.5) is -1.61; in data set [1] (pH 6), -0.781; in data set [1] (pH 6, modulator: ogerin) it was -1.42; in data set [1] (pH 6.5, modulator: ogerin), -0.296. The surface expression score in data set [2] is -2.9.
The like results for Y59I were, in that order, -1.37, -1.25, -1.23, -1.19 and -3.32.
In the same order, the values of Y59R are -2.04, -0.485, -2.35, -0.835 and -1.8.
In the same order, the values of L82_H84del are -0.795, -1.1, -1.69, -1.32 and 0.9.
On to D67_L68insGS, for which the cAMP reporter score in data set [1] (pH 5.5) is -0.95; in data set [1] (pH 6, modulator: ogerin), -1.18; in data set [1] (pH 6.5, modulator: ogerin) it was -0.683. Further, in data set [2], the surface expression score is -2.08.
In the same order, the values of L82E are -0.005, 0.174, -0.305 and 0.242.
Regarding L82N, the cAMP reporter score in data set [1] (pH 5.5) was -0.748; in data set [1] (pH 6), -1.1; in data set [1] (pH 6, modulator: ogerin), -0.731; in data set [1] (pH 6.5, modulator: ogerin), -1.16. The surface expression score in data set [2] stood at 0.258.
With L82C, the cAMP reporter score was -0.655 in data set [1] (pH 5.5); -0.803 in data set [1] (pH 6); -0.772 in data set [1] (pH 6.5, modulator: ogerin). In addition, the surface expression score in data set [2] is -1.25.
For L82A, the cAMP reporter score in data set [1] (pH 5.5) was -0.851; in data set [1] (pH 6), -1.14; in data set [1] (pH 6, modulator: ogerin), -1; in data set [1] (pH 6.5, modulator: ogerin), -0.639. The surface expression score in data set [2] is -0.188.
